Results: the supplement of paper PMC4967469

Compound: NS(=O)(=O)OC[C@@H]1C[C@@H](n2ccc3c(N[C@H]4CCc5ccccc54)ncnc32)C[C@@H]1O [MLN4924]
Assay: Viability of human cancer cell lines after 72 h of drug (GDSC screen)
Settings: top dose 1 µM; top dose inferred
Procedure: (§1)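 Human cancer cell lines in 384-well plates, medium with 10% serum, drug for 72 h over a 256-fold dose range (nine 2-fold or five 4-fold steps up to the top dose). Adherent lines were fixed and stained with the nucleic acid dye Syto60, suspension lines read with resazurin; signal relative to control wells, capped at 0 and 100%. One two-parameter sigmoid per drug and line, fitted in a mixed model over all curves with the slope shared within a line.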

Cell Line	AUC	IC50 [nM]
JEKO-1 (B-cell lymphoma, suspension)	0.968	> 1000

Compound: Cc1cc([C@@H](C)Nc2ccccc2C(=O)O)c2nc(N3CCOCC3)cc(=O)n2c1 [AZD6482]
Assay: as above
Settings: top dose 5 µM; screen: GDSC drug entry 1066; top dose inferred
Procedure: as §1

Cell Line	AUC	IC50 [nM]
JEKO-1 (B-cell lymphoma, suspension)	0.53	375

Compound: Cn1c(=O)n(-c2ccc(C(C)(C)C#N)cc2)c2c3cc(-c4cnc5ccccc5c4)ccc3ncc21 [NVP-BEZ235]
Assay: as above
Settings: not given
Procedure: as §1

Cell Line	AUC	IC50 [nM]
NB5 (neuroblastoma, adherent, top dose 0.25 µM)	0.638	37.9
NCI-H720 (lung carcinoid, suspension, top dose 0.25 µM)	0.765	84
LU-135 (small cell lung carcinoma, suspension, top dose 0.25 µM)	0.83	122
LN-405 (glioma, adherent, top dose 0.25 µM)	0.685	59.3
SAS (head and neck, adherent, top dose 0.25 µM)	0.849	222
BT-549 (breast, adherent, top dose 0.25 µM)	0.78	147
LXF-289 (lung adenocarcinoma, adherent, top dose 0.25 µM)	0.581	
NCI-H2405 (lung adenocarcinoma, adherent, top dose 0.25 µM)	0.679	52.3
HCC-78 (lung adenocarcinoma, adherent, top dose 0.25 µM)	0.73	80.4
RO82-W-1 (thyroid, adherent, top dose 0.25 µM)	0.675	55.7
LAN-6 (neuroblastoma, adherent, top dose 0.25 µM)	0.968	> 250
RL (B-cell lymphoma, suspension, top dose 0.25 µM)	0.574	24.5
ES5 (Ewing sarcoma, adherent, top dose 0.25 µM)	0.507	16.4
IM-9 (myeloma, suspension, top dose 0.25 µM)	0.989	> 250
SCC90 (head and neck, adherent, top dose 0.25 µM)	0.902	> 250
RERF-LC-MS (lung adenocarcinoma, adherent, top dose 0.25 µM)	0.828	159
SU-DHL-16 (B-cell lymphoma, suspension, top dose 0.25 µM)	0.61	28.9
NCI-H28 (mesothelioma, adherent, top dose 0.25 µM)	0.634	41.4
LU-165 (small cell lung carcinoma, suspension, top dose 0.25 µM)	0.964	> 250
OV-7 (ovary, adherent, top dose 0.25 µM)	0.676	62.7
COR-L321 (lung, suspension, top dose 0.25 µM)	0.919	> 250
MOG-G-UVW (glioma, adherent, top dose 0.25 µM)	0.518	17.4
RCC10RGB (kidney, adherent, top dose 0.25 µM)	0.773	
COLO-679 (melanoma, adherent, top dose 0.25 µM)	0.802	141
CaR-1 (large intestine, adherent, top dose 0.25 µM)	0.712	85
NCI-SNU-5 (stomach, suspension, top dose 0.25 µM)	0.62	33.5

Cell Line	AUC	IC50 [nM]
PFSK-1 (medulloblastoma, adherent, top dose 0.25 µM)	0.663	45.9
MRK-nu-1 (breast, suspension, top dose 0.25 µM)	0.788	99.9
LB771-HNC (head and neck, adherent, top dose 0.25 µM)	0.839	236
MHH-CALL-2 (B-cell leukaemia, suspension, top dose 0.25 µM)	0.785	78.6
SW1417 (large intestine, adherent, top dose 0.25 µM)	0.972	> 250
NB10 (neuroblastoma, adherent, top dose 0.25 µM)	0.959	> 250
LP-1 (myeloma, suspension, top dose 0.25 µM)	0.856	150
PL4 (pancreas, adherent, top dose 0.25 µM)	0.719	66.6
WIL2-NS (lymphoid neoplasm, suspension, top dose 0.25 µM)	0.834	122
LN-18 (glioma, adherent, top dose 0.25 µM)	0.76	72.9
SW780 (bladder, adherent, top dose 0.25 µM)	0.58	26.5
451Lu (melanoma, adherent, top dose 0.25 µM)	0.694	53.2
IST-SL1 (small cell lung carcinoma, semi-adherent, top dose 0.25 µM)	0.942	> 250
EW-3 (Ewing sarcoma, adherent, top dose 0.25 µM)	0.804	147
C2BBe1 (large intestine, adherent, top dose 0.25 µM)	0.689	57.3
SW954 (urogenital system, adherent, top dose 0.25 µM)	0.853	200
NCI-H1651 (lung adenocarcinoma, adherent, top dose 0.25 µM)	0.846	205
SNU-C5 (large intestine, adherent, top dose 0.25 µM)	0.864	> 250
BE2-M17 (neuroblastoma, adherent, top dose 0.25 µM)	0.773	100
SF268 (glioma, adherent, top dose 0.25 µM)	0.805	139
CAL-39 (cervix, adherent, top dose 0.25 µM)	0.647	40.5
MFH-ino (soft tissue, adherent, top dose 0.25 µM)	0.486	14.2
PA-TU-8902 (pancreas, adherent, top dose 0.25 µM)	0.616	34.5
CAL-78 (chondrosarcoma, adherent, top dose 0.25 µM)	0.911	> 250
JHOS-4 (ovary, adherent, top dose 0.25 µM)	0.948	> 250
PWR-1E (prostate, adherent, top dose 0.25 µM)	0.845	180

Cell Line	AUC	IC50 [nM]
EW-16 (Ewing sarcoma, adherent, top dose 0.25 µM)	0.514	17.1
Saos-2 (osteosarcoma, adherent, top dose 0.25 µM)	0.806	198
KMH-2 (thyroid, adherent, top dose 0.25 µM)	0.72	60.3
AU565 (breast, adherent, top dose 0.25 µM)	0.7	61.4
CAL-33 (head and neck, adherent, top dose 0.25 µM)	0.508	16.5
TYK-nu (ovary, adherent, top dose 0.25 µM)	0.459	12
EW-22 (Ewing sarcoma, adherent, top dose 0.25 µM)	0.673	
NKM-1 (acute myeloid leukaemia, suspension, top dose 0.25 µM)	0.78	106
ChaGo-K-1 (non-small cell lung carcinoma, adherent, top dose 0.25 µM)	0.838	210
639-V (bladder, adherent, top dose 0.25 µM)	0.683	46.5
MHH-NB-11 (neuroblastoma, adherent, top dose 0.25 µM)	0.902	> 250
22RV1 (prostate, adherent, top dose 0.25 µM)	0.665	50.6
NCI-H1048 (small cell lung carcinoma, adherent, top dose 0.25 µM)	0.761	80.3
SF539 (glioma, adherent, top dose 0.25 µM)	0.694	51.4
KNS-62 (lung squamous cell carcinoma, adherent, top dose 0.25 µM)	0.651	49.8
DEL (lymphoid neoplasm, suspension, top dose 0.25 µM)	0.934	> 250
OE33 (oesophagus, adherent, top dose 0.25 µM)	0.791	136
PANC-02-03 (pancreas, adherent, top dose 0.25 µM)	0.844	234
CP66-MEL (melanoma, adherent, top dose 0.25 µM)	0.884	> 250
GDM-1 (acute myeloid leukaemia, suspension, top dose 0.25 µM)	0.941	> 250
JSC-1 (B-cell lymphoma, suspension, top dose 0.25 µM)	0.732	71.1
Jurkat (T-cell leukaemia, suspension, top dose 0.25 µM)	0.868	163
FLO-1 (oesophagus, adherent, top dose 0.25 µM)	0.657	51.8
WM793B (melanoma, adherent, top dose 0.25 µM)	0.58	26.6

Lines with a small IC50 respond at low doses; where the fit passes the top or lowest dose, that dose stands as a limit. AUC is the area under the same curve over the 256-fold range up to the top dose, as a fraction; it is 1 without any effect and falls as sensitivity rises. For part of these data: An inferred top dose comes from the curve model; the source does not state it. For part of these data: Where an entry number is given, a second screen of the drug exists; the two often differ.
